Laboratory results: the antibiotic and cytotoxicity screens of Wong et al. (2023)
The other results are listed elsewhere or left out.

The compounds below were run on HepG2 (assay: cytotoxicity call (relative viability < 0.9)). Conditions: 10 µM.

Row | SMILES | cytotoxicity call
1 | C=C1CC23CC1(O)CCC2C12C=CC(O)C(C)(C(=O)O1)C2C3C(=O)O (configuration not stated) | inactive
2 | Cc1noc(C)c1NC(=O)N(C)C[C@H]1OCCCC[C@@H](C)Oc2ccc(NS(=O)(=O)c3cccs3)cc2C(=O)N([C@H](C)CO)C[C@@H]1C | inactive
3 | C[C@@H]1CN([C@H](C)CO)C(=O)Cc2cc(NS(=O)(=O)c3cn(C)cn3)ccc2O[C@@H]1CN(C)S(=O)(=O)c1ccc(Cl)cc1 | inactive
4 | Cn1cnc(CCNC(=O)C[C@H]2CC[C@H]3[C@@H](COC[C@@H](O)CN3C(=O)C3CC3)O2)c1 | inactive
5 | C[C@H](CO)N1C[C@H](C)[C@H](CN(C)S(=O)(=O)c2ccc(C#N)cc2)Oc2ncc(Br)cc2C1=O | inactive
6 | C[C@@H]1CN([C@@H](C)CO)C(=O)Cc2cc(NC(=O)Nc3ccc(C(F)(F)F)cc3)ccc2O[C@@H]1CN(C)C(=O)NC1CCCCC1 | active
7 | Nc1nc(=O)[nH]cc1F | inactive
8 | C[C@H](CO)N1C[C@H](C)[C@H](CN(C)Cc2ccc(-c3ccccc3)cc2)Oc2ccc(NC(=O)Cc3cn(C)c4ccccc34)cc2C1=O | active
9 | C[C@H]1CN([C@@H](C)CO)C(=O)c2cccc(NS(=O)(=O)c3ccc(Cl)cc3)c2O[C@@H]1CN(C)Cc1ccc(Cl)c(Cl)c1 | active
10 | C[C@H](CO)N1C[C@H](C)[C@@H](CN(C)C(=O)Nc2ccc3c(c2)OCO3)Oc2c(NS(=O)(=O)c3cn(C)cn3)cccc2C1=O | inactive
11 | CCS(=O)(=O)Nc1ccc2c(c1)C(=O)N(C)[C@H]1CC[C@@H](CC(=O)N[C@H]3CCN(Cc4ccccc4)C3)O[C@@H]1CO2 | inactive
12 | CC(=O)OCN1CCN(COC(C)=O)C1=O | inactive
13 | COc1ccc(CN(C)C[C@@H]2Oc3c(NS(C)(=O)=O)cccc3C(=O)N([C@H](C)CO)C[C@H]2C)cc1 | inactive
14 | C[C@H]1CN([C@@H](C)CO)C(=O)c2cccc(NC(=O)Nc3ccc(F)cc3)c2O[C@H]1CN(C)S(=O)(=O)c1cn(C)cn1 | inactive
15 | CN(Cc1cnc2nc(N)nc(N)c2n1)c1ccc(C(=O)NC(CCC(=O)O)C(=O)O)cc1.O (configuration not stated) | active
16 | O=C(NS(=O)(=O)c1ccccc1)C1CC1 | inactive

Row | SMILES | cytotoxicity call
17 | C[C@H]1CN([C@@H](C)CO)C(=O)c2cc(NC(=O)Nc3ccc(F)cc3)ccc2O[C@H]1CN(C)Cc1ccc(Oc2ccccc2)cc1 | inactive
18 | C[C@H](CO)N1C[C@H](C)[C@@H](CN(C)Cc2ccc(C(=O)Nc3ccccc3N)cc2)Oc2c(NC(=O)Nc3ccc4c(c3)OCO4)cccc2C1=O | inactive
19 | NC[C@H]1CCS(=O)(=O)C1 | inactive
20 | C[C@H](CO)N1C[C@H](C)[C@H](CN(C)C(=O)Nc2ccc(C(F)(F)F)cc2)Oc2c(NC(=O)NC3CCCCC3)cccc2C1=O | active
21 | C[C@@H]1CN([C@H](C)CO)C(=O)c2cccc(NC(=O)Nc3ccc(C(F)(F)F)cc3)c2O[C@@H]1CN(C)Cc1ccccc1 | inactive
22 | COc1ccc(S(=O)(=O)N(C)C[C@H]2OCCCC[C@@H](C)Oc3ccc(NC(=O)Nc4ccccc4)cc3C(=O)N([C@@H](C)CO)C[C@@H]2C)cc1 | inactive
23 | Cc1noc(C)c1NC(=O)Nc1ccc2c(c1)C(=O)N([C@H](C)CO)C[C@H](C)[C@H](CN(C)Cc1ccc(Oc3ccccc3)cc1)O2 | inactive
24 | CN1CCN(C(=O)C[C@@H]2CC[C@H]3[C@H](COc4ccc(NC(=O)c5cccs5)cc4C(=O)N3C)O2)CC1 | inactive
25 | O=C(O)c1cccnc1 | inactive
26 | C[C@@H]1CCCCO[C@@H](CN(C)Cc2ccc3c(c2)OCO3)[C@H](C)CN([C@@H](C)CO)C(=O)c2cc(NS(=O)(=O)c3cccs3)ccc2O1 | inactive
27 | CNC[C@H]1Oc2cc(C#CCN(C)C)ccc2S(=O)(=O)N([C@@H](C)CO)C[C@H]1C | inactive
28 | CC(C)(CO)[C@H](O)C(=O)NCCC(=O)NCCSSCCNC(=O)CCNC(=O)[C@H](O)C(C)(C)CO | inactive
29 | COCC(=O)Nc1ccc2c(c1)C(=O)N(C)C[C@H](OC)[C@@H](C)CN(C(=O)Cc1ccccn1)[C@@H](C)CO2 | inactive
30 | C[C@H](CO)N1C[C@H](C)[C@H](CN(C)C(=O)Nc2cccc3ccccc23)Oc2ncc(-c3cccc(F)c3)cc2C1=O | inactive
31 | O=C(C[C@@H]1CC[C@@H](NS(=O)(=O)c2ccccc2)[C@H](CO)O1)NCc1ccncn1 | inactive
32 | COc1ccc(CN(C)C[C@@H]2Oc3ccc(NS(=O)(=O)c4c(C)noc4C)cc3CC(=O)N([C@@H](C)CO)C[C@@H]2C)cc1 | inactive
